# From US8618306B2, “Method for preparing deuterated diphenylurea” (Suzhou Zelgen Biopharmaceutical Co., Ltd., priority 2010, dated 2013)
# Legend:
# c-Kit = c-Kit (Homo sapiens, UniProt P10721); assay: Tyrosine kinase inhibition at the molecular level by ELISA; format: biochemical; conditions: 10 μM; one verdict for c-Kit and PDGFR-β
# Method: The activity of diphenylurea compounds for inhibiting c-Kit, PDGFR-β protein tyrosine kinase on molecular level was tested by Enzyme-Linked Immunosorbent Assay (ELISA).
# Reaction substrate Poly(Glu,Tyr)4:1 was bought from Sigma. Monoclonal antibody against tyrosine phosphate PY99 was bought from Santa Cruz. Horseradish peroxidase labeled sheep-against-rat IgG was bought from Calbiochem; ATP, DTT, OPD were bought from Amresco; microplates were bought from Corning; Su11248 was bought from Merk.
# See Roskoski, R., Jr. Sunitinib: a VEGF and PDGF receptor protein kinase and angiogenesis inhibitor. Biochem Biophys Res Commun, 356: 323-328, 2007. The details comprise:
# Kinase reaction substrate Poly(Glu,Tyr)4:1 was diluted to 20 μg/ml by potassium-free PBS, and the microplates were coated. Diphenylurea samples to be tested were added in the wells of the coated microplates (the samples to be tested were made from the stock solution 10^−2 M in DMSO, and diluted to the desired concentration with reaction buffer before use. the resulted solution was added into the wells to get the final concentration of 10^−5 mol/L in 100 μL reaction system). […]
# The reaction system was placed in a wet box, and shaked for 1 h at 37° C. shielding from light. […] A492 value was determined using wavelength-adjustable microplate reader VERSAmax.
# The inhibition ratio of samples can be calculated by the following formula: […]
# in vivo = conditions: male, Sprague-Dawley, rat, serum, po, 3 mg/kg
# [1] = test system: human hepatocellular carcinoma SMMC-7721; assay: Inhibition of tumor growth in nude mice xenograft model; format: in vivo, Balb/c nu/nu nude mice; conditions: 100 mg/kg
# Excerpt: 70 Balb/c nu/nu nude mice, 6 weeks-old, female, were bought from Shanghai Experimental Animal Resource Center (Shanghai B&K Universal Group Limited).
# SMMC-7721 cells were commercially available from Shanghai Institutes for Biological Science, CAS (Shanghai, China).
# The establishment of tumor nude mice xenograft model: SMMC-7721 cells in logarithmic growth period were obtained. After cell number counting, the cells were suspended in 1×PBS, and the concentration of the cell suspension was adjusted to 1.5×10^7/ml. The tumor cells were inoculated under the skin of right armpit of nude mice with a 1 ml syringe, 3×10^6/0.2 ml/mice. 70 nude mice were inoculated in total.
# When the tumor size reached 30-130 mm^3, 58 mice were divided randomly into different groups. […]
# Animal body weight and tumor size were tested twice a week during the experiment. Clinical symptoms were recorded every day. At the end of the administration, the tumor size was recorded by taking pictures. […]
# The formula for calculating the tumor volume (TV) is: TV=a×b^2/2, wherein a, b independently represent the length and the breadth of the tumor. The formula for calculating the relative tumor volume (RTV) is: RTV=Vt/V0, wherein V0 is the tumor volume at the beginning of the administration, and Vt is the tumor weight when measured. […]
SMILES,results (efficacy evaluation) (c-Kit),AUC (in vivo) [µg·h/mL],"absolute value of tumor inhibition rate, increase compared with CM4306 ([1]; day 15)","relative value of tumor inhibition rate, increase compared with CM4306 ([1]; day 15 (32.2%/19.6%−1=64%))"
"CNC(=O)c1cc(Oc2ccc(NC(=O)Nc3ccc(Cl)c(C(F)(F)F)c3)cc2)ccn1 [CM4306, 4-(4-(3-(4-chloro-3-(trifluoromethyl)phenyl]ureido)-phenoxy)-N-methylpicolinamide]",effective (The compound has efficacy if the inhibition rate of the tested compound at the experimental concentration 10^−5 mol/L was greater than 50%),7.33 ± 0.336,–,–
"[2H]C([2H])([2H])NC(=O)c1cc(Oc2ccc(NC(=O)Nc3ccc(Cl)c(C(F)(F)F)c3)cc2)ccn1 [CM4307, N-(4-chloro-3-(trifluoromethyl)phenyl)-N′-(4-(2-(N-(methyl-d3)aminoformyl)-4-pyridyloxy)phenyl)urea]",–,11.3 ± 2.47,more than 10%,about 60%
